The full ranking holds about 33,000 sequences; the median of “E-score (dimensionless, -0.5 to 0.5)” is about -0.058, and the highest 2% start at about 0.35. Some of the results follow.
These sequences were tested on MvaT (assay: PBM 8-mer E-score (mean of HK and ME arrays) (E-score (dimensionless, -0.5 to 0.5)); higher = stronger relative binding preference; most listed sequences are background and not binding sites).
Outline: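 Full-length P. aeruginosa MvaT carrying an N-terminal glutathione S-transferase tag was tested by protein binding microarray following a previously described protocol. Two universal double-stranded 60-mer arrays, ME and HK, were used, each with a constant 25-mer primer region and a variable 35-mer region covering all 8-mers. The rank-based E-score is the mean of the two arrays, parsed with a custom script. Its range runs from -0.5 to 0.5 for each 8-mer.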

| Sequence | PBM 8-mer E-score |
| --- | --- |
| CGGCAAGA | -0.133 |
| ACGGTGCT | -0.275 |
| CGACGCGA | -0.231 |
| GGCATCCC | -0.218 |
| GGCTCAGA | -0.266 |
| ACCGGATG | -0.127 |
| AGGATGAT | -0.205 |
| CGGCGCGA | -0.211 |
| AGCCCACT | -0.242 |
| ACCCGATA | 0.0153 |
| CATCCAGA | 0.00739 |
| CCACACAA | 0.00359 |
| CGTGGTGA | -0.229 |
| ACTAGCAA | -0.000967 |
| GTCGTAGA | -0.233 |
| AGCCCCCT | -0.369 |
| CTTGTAGC | -0.00649 |
| ACGCGGAC | -0.268 |
| GCTGGTAC | -0.0889 |
| CCACGCCA | -0.143 |
| AGCTCCTA | -0.104 |
| CTATGCGC | -0.0745 |
| AGTAAGCA | 0.141 |
| CAACCTTC | -0.176 |

| Sequence | PBM 8-mer E-score |
| --- | --- |
| GCTTTTCC | -0.109 |
| TCTCGCAA | -0.0626 |
| GAGCATCA | -0.131 |
| TCTGATCA | -0.0103 |
| GAGGGCTA | -0.209 |
| AAAGTACA | 0.223 |
| GAGTGTTA | 0.0616 |
| ACTTTGAT | 0.114 |
| AAAAATAG | 0.0973 |
| AATGGTAC | 0.129 |
| GGTGCTGA | -0.124 |
| AGCCGTCC | -0.199 |
| ACATCCAC | 0.0934 |
| GGGAGCGA | -0.224 |
| GATCTAAA | 0.0578 |
| ATCACTCA | 0.133 |
| ACTAGAGG | -0.105 |
| CCGAGTGA | -0.146 |
| GATACTCA | -0.0124 |
| GACTCGCC | -0.136 |
| CATCTGGG | -0.185 |
| GCTTAGCC | -0.258 |
| GGGATGCA | -0.112 |
| ACAATCTA | 0.155 |

| Sequence | PBM 8-mer E-score |
| --- | --- |
| AGACACGA | -0.182 |
| ATCTACCG | -0.0721 |
| TGACTGAA | 0.0636 |
| AACTAGAG | -0.019 |
| CGCACACC | -0.0751 |
| ACGGCTTA | 0.0112 |
| AATTACAA | 0.367 |
| AACATAAA | 0.286 |
| GGGGACGA | -0.14 |
| AGATTTAT | 0.232 |
| ACAACACG | 0.00247 |
| CCATACGG | -0.228 |
| TTAGGCAA | 0.023 |
| ATTAGTCG | 0.0683 |
| CACATCAG | -0.0164 |
| GGGTAGTA | -0.0229 |
| AGTACGCC | -0.234 |
| ACGGTCTC | -0.16 |
| CCTAACAC | -0.0549 |
| CGGCTTAG | -0.15 |
| ACTCCCTA | 0.0147 |
| AATTTGTG | 0.102 |
| AAGGACAA | 0.0885 |
| AAACTTCT | 0.272 |

| Sequence | PBM 8-mer E-score |
| --- | --- |
| GGCAAGCC | -0.339 |
| TAGCGCAA | -0.0182 |
| GCGTATTA | 0.193 |
| GTAGCGCA | -0.142 |
| CCGGCTAA | -0.0917 |
| CTGGGACA | -0.14 |
| AACGCACT | -0.00127 |
| GACTAGCA | -0.207 |
| AATCGAAT | 0.0272 |
| GCCCAGGA | -0.233 |
| TAACTATA | 0.336 |
| GCGGCAGC | -0.249 |
| CTGCCGCA | -0.175 |
| CTATAATC | 0.295 |
| ACGCTGTA | -0.185 |
| CTTTAGAA | 0.159 |
| ACGTAGGA | -0.148 |
| GGCGAAAA | 0.118 |
| AGCAGAGA | -0.146 |
| ACGAAATG | 0.034 |
| AGCGCCGC | -0.252 |
| CACCCGAA | -0.204 |

— the supplement of paper PMC4466236
